Laboratory results reported in PubChem BioAssay AID1347073 (National Center for Advancing Translational Sciences (NCATS), 2019).
Screen size: about 45,000 compounds; about 200 (0.44%) were called active. About 7% were inconclusive and are not listed. Calls follow the shape of the dose curve; as a rule, active = well fitted activation curve with a large enough effect; inconclusive = small, poorly fitted or top-dose-only effect; inactive = no such curve, though single readings can be large or run the other way. The list shows a part of the results.

Assay: qHTS of TDP-43 Inhibitors: NCGC Sytravon Library Screen; also: 0% is about no effect; nearly all actives have a fitted effect of over 55% in size
Details: yeast TDP-43 toxicity rescue, BacTiter-Glo growth, 24 h; series mostly up to 46.1 µM; growth rescue (activation): at the top concentration
In short: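 TDP-43-expressing yeast, pregrown in raffinose, seeded at OD600 0.02 in galactose medium with compound for 24 hr at 30 deg C. Growth read by BacTiter-Glo luminescence, so rescue of toxicity appears as activation.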

| SMILES | growth rescue (activation) |
| --- | --- |
| CCc1cccc(NC(=O)C2CCCN(S(=O)(=O)c3cccs3)C2)c1 (configuration not stated) | inactive: 17.3% |
| COc1ccc(N(CC(=O)NN=C2CCN(C)CC2)S(=O)(=O)c2ccccc2)c(OC)c1 | inactive: 13.2% |
| CN(C)CCNC(=O)Nc1ccc(F)cc1F | inactive: -4% |
| CCN(CC(=O)NCc1ccc(F)cc1)Cc1nc2cc(Cl)ccc2c(=O)[nH]1 | inactive: -0.0853% |
| Cc1ccc(N(CC(=O)NC2CCCCC2)C(=O)CCCC(=O)Nc2ccccn2)cc1 | inactive: 3.44% |
| Cc1ccc(S(=O)(=O)NCCC(=O)Nc2cccc(S(N)(=O)=O)c2)cc1C | inactive: -4.48% |
| Cc1ccc(NC(=O)C2CCCN2C(=O)NC2CCCCC2)cc1F (configuration not stated) | inactive: 3.85% |
| O=C(Cc1cc(=O)[nH][nH]1)N/N=C/c1cccc(Cl)c1Cl | inactive: 17.1% |
| C=CC[n+]1c(-c2ccccc2)csc1NC(C)(C)C | inactive: -23.4% |
| CCOc1ccccc1N1CCN(C(=O)c2cccc(-c3ccc(O)cc3)c2)CC1 | inactive: -72.8% |
| COc1cccc(NC(=O)C2CCC(CNS(=O)(=O)c3cccs3)CC2)c1 (configuration not stated) | inactive: -9.99% |
| O=C(O)CCCCCn1c(SCc2cc(=O)n3cc(Cl)ccc3n2)nc2ccsc2c1=O | inactive: 14.2% |
| O=C(/C=C/c1cccc(Br)c1)N1CCN(c2cccc(C(F)(F)F)c2)CC1 | inactive: 15.9% |
| CCOC(=O)C1=C(COC(=O)[C@@H](NC(=O)c2cccc(C)c2)C(C)C)NC(=O)NC1C (some centres not stated) | inactive: 22.8% |
| O=C(CSc1nc2ccccc2n1Cc1ccc(Cl)cc1)N/N=C/c1ccccc1C(=O)O | inactive: -1.74% |
| Cc1cc(NC(=O)COc2ccccc2C(N)=O)no1 | inactive: -6.48% |
| COc1ccc(NC(=O)c2cc(C3CCCCN3C(=O)Cc3ccc(N(C)C)cc3)on2)c(C)c1 (configuration not stated) | inactive: -5.78% |
| Cc1nc(NC(=O)c2ccc([N+](=O)[O-])cc2Cl)sc1C(=O)N(C)C | inactive: 14% |
| Cc1ccc2cc(C3CC(c4ccco4)=NN3C(=O)CCC(=O)O)c(Cl)nc2c1 (configuration not stated) | inactive: 8.63% |
| Cc1coc2c1c(C)cc1oc(=O)c(CC(=O)NCC(=O)NCC(=O)O)c(C)c12 | inactive: -22% |
| COCc1ccc(CN2CCCC(CCC(=O)NCc3cccc(OC)c3)C2)o1 (configuration not stated) | inactive: 1.84% |
| CCOc1ccc(CN(C)C(=O)NNC(=O)c2ccc(C)cc2)cc1OC | inactive: -0.672% |
| CCN(CC)CCN(Cc1cc2cc(C)ccc2[nH]c1=O)C(=S)NCc1ccco1 | inactive: -3.44% |

| SMILES | growth rescue (activation) |
| --- | --- |
| CC1CCCN(CCOCCOc2ccc(Br)cc2Cl)C1 (configuration not stated) | inactive: -16.4% |
| CC1(C)N([O-])C2=C(c3ccccc3C2=O)[N+](=O)C1(C)C | inactive: -25% |
| Cn1cc(-c2ccccc2)cc(C#N)c1=O | inactive: -8.07% |
| CCOC(=O)NC(=O)CSc1nc2ccc(C)cc2[nH]1 | inactive: 10.8% |
| CNc1cccc(-c2cccc(C(=O)N3CCOCC3)c2)n1 | inactive: 1.44% |
| CN(C)c1ccc(Nc2c3c4c(cccc4n(C)c2=O)C(=O)c2ccccc2-3)cc1 | inactive: -4.72% |
| O=C(COC(=O)c1ccccc1O)Nc1cccnc1Cl | inactive: 6.15% |
| COc1cc(NC(=O)COc2ccc(Cl)cc2)ccc1-c1cc2ccccc2oc1=O | inactive: -2.82% |
| O=C(NC1CC2CCCC(C1)N2C(=O)Nc1ccccc1)c1ccccc1 (configuration not stated) | inactive: 5.36% |
| O=C(CSc1ccccn1)Nc1nc2ccccc2s1 | inactive: 11.1% |
| CCOC(=O)C(C)(C)N(Cc1ccc(C)cc1)S(=O)(=O)c1ccc(Cl)c([N+](=O)[O-])c1 | inactive: 14.2% |
| COC(=O)c1ccc(CNC(=O)c2cc3ccccc3oc2=O)cc1 | inactive: 2.74% |
| C#CCSc1nnc(-c2ccc(O)cc2)o1 | inactive: 4.83% |
| COc1ccc(C(=O)Nc2cc(Cl)ccc2C(=O)O)cc1 | inactive: -0.888% |
| CCOc1ccccc1NC(=O)N1CCc2cc(S(=O)(=O)N3CCC(C)CC3)ccc21 | inactive: -4.43% |
| Cc1cccc(S(=O)(=O)NC(=O)C2(C)CCN2C(=O)Cc2cc(F)ccc2F)c1 (configuration not stated) | inactive: -15.7% |
| COc1ccc(-c2c[n+]3c(n2-c2ccc(C)cc2)CCCCC3)cc1 | inactive: -7.99% |
| COc1ccccc1N(C(=O)c1snc(C(N)=O)c1N)C(C(=O)NC1CCCC1)c1ccc2ncccc2c1 (configuration not stated) | inactive: 13.7% |
| Cc1ccc(NC(=O)C(=O)NNC(=O)c2ccccc2C)cc1Cl | inactive: 12.8% |
| CCCCCC(=O)N/N=C/c1ccccc1[N+](=O)[O-] | inactive: 18.9% |
| O=C(C[n+]1ccc(C(=O)c2ccccc2)cc1)Nc1ccccc1OC(F)F | inactive: 9.85% |
| Cc1ccc(S(=O)(=O)NNc2nnc(C)c(=O)[nH]2)cc1 | inactive: 10% |
| CCN(CC)CCNC(=S)Nc1ccc2nc3n(c(=O)c2c1)CCCCC3 | inactive: 13.7% |

| SMILES | growth rescue (activation) |
| --- | --- |
| COc1cc(OC)cc(C(=O)OCC(=O)NCc2ccc3c(c2)OCO3)c1 | inactive: 3.69% |
| O=C(Nc1ccc(F)cc1F)c1cncc(Br)c1 | inactive: 26.6% |
| CC(C)[C@H](NS(=O)(=O)c1cccc(C(F)(F)F)c1)C(=O)OCC(N)=O | inactive: 20.9% |
| COC(=O)Cc1ccc(NC(=S)Nc2ccc(N3CCOCC3)cc2)cc1 | inactive: -6.46% |
| O=C(CN1CCN(C(=O)c2ccc(OCc3cn4ccccc4n3)cc2)CC1)Nc1cccc(F)c1 | inactive: -5.27% |
| O=C(O)c1cccc(N2C(=O)Nc3ccccc3N2O)c1 | inactive: -6.45% |
| CC(=O)Nc1ccc(S(=O)(=O)NCC(=O)NCCc2ccc(S(N)(=O)=O)cc2)cc1 | inactive: 12.1% |
| CC(=O)NC1=NN(C(C)=O)C(c2ccccn2)S1 (configuration not stated) | inactive: -4.87% |
| CN(C)CCNS(=O)(=O)c1ccc(N2CCN(c3ccc(F)cc3)CC2)c([N+](=O)[O-])c1 | inactive: 20% |
| Cc1cc(C)cc(C(=O)NCC(=O)OCC(=O)N(C)C2CCS(=O)(=O)C2)c1 (configuration not stated) | inactive: -21.7% |
| COC(=O)Cn1c(C)nc(=O)c(-c2ccccc2)c1C | inactive: -3.74% |
| COc1cc(CC(=O)NCC(C)(C)N2CCOCC2)cc(OC)c1OC | inactive: -7.03% |
| CCCn1c(=N)n(CC(O)c2ccc(C)cc2)c2ccccc21 (configuration not stated) | inactive: 2.31% |
| Cc1ccc(NS(=O)(=O)c2c(F)cc(F)c(Cl)c2F)cc1S(=O)(=O)N1CCOCC1 | inactive: 3.97% |
| COc1cccc(CCc2nnc(CCC(=O)N3CCN(Cc4ccccn4)CC3)o2)c1 | inactive: 1.58% |
| COc1ccc(CCNC(=O)c2ccc3c(c2)NC(=O)C(N2CCOCC2)S3)cc1OC (configuration not stated) | inactive: 14% |
| O=C(CCCn1c(=O)c2sccc2n(Cc2ccc(Cl)cc2)c1=O)NCc1ccc2c(c1)OCO2 | inactive: 17.5% |
| CCCOC(=O)c1sc2nc3c(cc2c1N)C(=O)CCC3 | inactive: 20.9% |
| O=C(NNS(=O)(=O)c1ccccc1)C1CCCCC1 | inactive: 1.2% |
| NC(=O)N/N=C/c1ccc(N2CCOCC2)s1 | inactive: -35.9% |
| COc1ccc(N2CC(C)Cn3c2nc2c3c(=O)[nH]c(=O)n2C)cc1 (configuration not stated) | inactive: -8.62% |
